Measurements taken from the supplement of paper PMC4723716.
± gives the uncertainty stated by the source. Over roughly 9,900 compounds, “viability index relative to DMSO control” has its median near 1; the lowest 2% begin near 0.85. Some of the results follow.

Each compound was assayed on Plasmodium falciparum NF54 stage V gametocytes (assay: viability index relative to DMSO control (fraction); higher = less gametocyte killing). Conditions: 2.5 µM, library set: Broad Institute DOS, incubation time: 72 h.
Summary of the method: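 Gametocytes (P. falciparum NF54, stage V) were treated with compound at 2.5 µM for 72 hr at 37°C in low oxygen, in serum-free medium at 0.75% gametocytemia and 1.25% hematocrit. Counts of 20–70 µm2 red particles, taken from one field per well after MitoTracker Red CMXRos with saponin, were divided by the plate mean of solvent-only wells. This ratio is the viability index.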

Structure (SMILES)	viability index
O=C(N[C@H]1C=C[C@@H](CC(=O)N2CCC(Cc3ccccc3)CC2)O[C@H]1CO)c1cnccn1	0.904 ± 0.15
CN1C(=O)c2cc(NC(=O)Cc3cccs3)ccc2OC[C@H]2O[C@H](CC(=O)N[C@H]3CCN(Cc4ccccc4)C3)CC[C@@H]21	1.06 ± 0.08
CNC[C@@H]1Oc2c(NC(=O)Nc3cccc4ccccc34)cccc2C(=O)N([C@@H](C)CO)C[C@H]1C	0.928 ± 0.02
CC(C)CC#Cc1ccc([C@@H]2[C@@H](CO)N3C(=O)CN(S(=O)(=O)c4cccc(F)c4)C[C@H]23)cc1	0.9179 ± 0.008
CCCN1C[C@H](C)[C@@H](OC)CN(C)C(=O)c2cc(NC(=O)Nc3cccc(F)c3)ccc2OC[C@H]1C	0.949 ± 0.1
C/C=C/c1ccc([C@@H]2[C@H]3CNC[C@@H]2N3C(=O)Nc2ccc3c(c2)OCO3)cc1	1.085 ± 0.0098
O=C(C[C@@H]1C=C[C@@H](NS(=O)(=O)c2ccc(F)cc2)[C@@H](CO)O1)N1CCc2ccccc2C1	0.96 ± 0.069
CO[C@H]1CN(C)C(=O)c2ccc(NC(C)=O)cc2OC[C@H](C)N(Cc2cccc(F)c2)C[C@@H]1C	1.05 ± 0.068
COc1ccccc1NC(=O)N1C[C@H](O)COC[C@H]2O[C@@H](CC(=O)N3CCC(Cc4ccccc4)CC3)CC[C@@H]21	1.03 ± 0.083
COc1cccc(S(=O)(=O)N2CCCCN3[C@@H](CO)[C@@H](c4ccc(C#CCC(C)C)cc4)[C@@H]3C2)c1	0.393 ± 0.021
COc1cccc(NC(=O)C[C@@H]2CC[C@@H]3[C@H](COc4ccc(NS(=O)(=O)c5cccc(F)c5)cc4C(=O)N3C)O2)c1	1.16 ± 0.12
C[C@@H]1CN([C@H](C)CO)C(=O)Cc2cc(NC(=O)c3ccncc3)ccc2O[C@@H]1CN(C)C(=O)Nc1ccc(F)cc1	1 ± 0.11
CC(C)NC(=O)N1[C@@H]2CNC[C@H]1[C@H]2c1ccc(/C=C/c2ccccc2)cc1	1.03 ± 0.071
C/C=C/c1ccc2n(c1=O)C[C@@H]1[C@@H](CO)[C@H](C(=O)NCC(F)(F)F)N(C(=O)c3cccnc3)[C@H]21.C/C=C\c1ccc2n(c1=O)C[C@@H]1[C@@H](CO)[C@H](C(=O)NCC(F)(F)F)N(C(=O)c3cccnc3)[C@H]21	1.07 ± 0.063
CO[C@H]1CN(C)C(=O)c2ccc(NC(=O)c3cc(C)on3)cc2OC[C@@H](C)NC[C@@H]1C	1 ± 0.019
O=C(C1CCOCC1)N1C[C@H]2[C@@H](c3ccccc31)[C@@H](CO)N2C(=O)Nc1ccccc1F	1.03 ± 0.063
COc1ccc(NC(=O)N(C)C[C@H]2Oc3ccc(NC(=O)CCN4CCOCC4)cc3C(=O)N([C@H](C)CO)C[C@@H]2C)cc1	1.02 ± 0.043
N#C[C@@H]1[C@H](c2ccc(C#Cc3ccccc3F)cc2)[C@@H](CO)N1C(=O)c1cccnc1	1.02 ± 0.071
